Some of the results follow. At the low end of the ranking the order means little.
Biological target: T1, GST-Rok-C97-191 (UniProt O34857)
T1 sequence: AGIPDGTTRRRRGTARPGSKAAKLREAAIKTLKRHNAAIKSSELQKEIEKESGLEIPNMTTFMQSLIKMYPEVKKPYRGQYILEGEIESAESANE
Experiment: protein binding microarray;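 note: rank score from −0.5 (least bound) to 0.5 (best bound)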
Conditions: Rok is a gene silencer of Bacillus subtilis; high values mean tight binding; most listed sequences are background and not binding sites; double strand, one strand shown

| Sequence | binding signal |
| --- | --- |
| GCCGGGTA | -0.0858 E-score |
| CACCTTTC | -0.147 E-score |
| ACAGACAA | -0.0117 E-score |
| GGAAATCA | 0.0546 E-score |
| ATATCCCC | -0.0642 E-score |
| GGTAGCTA | 0.357 E-score |
| ATTGGGAC | -0.0199 E-score |
| CATTGCTC | -0.106 E-score |
| GAGTCAAA | -0.0333 E-score |
| CGGCAGCA | -0.247 E-score |
| CACGGCAG | -0.237 E-score |
| ACGTCTTA | -0.144 E-score |
| CCTAGTCG | -0.0874 E-score |
| ATACGTCA | 0.149 E-score |
| CGCAGTAA | 0.0695 E-score |
| ACTTGCAC | 0.16 E-score |
| CGTTAGCC | -0.133 E-score |
| CGTAAGTA | 0.16 E-score |
| CCAACCGC | -0.309 E-score |
| CTGATCTA | 0.106 E-score |
| ATGGTCGC | -0.189 E-score |
| AATGCATT | 0.0786 E-score |
| CGATGCTC | -0.168 E-score |
| ATGTTATG | 0.14 E-score |
| ATGGGAAT | 0.192 E-score |

| Sequence | binding signal |
| --- | --- |
| CCACAGCA | -0.129 E-score |
| CCCTTCAC | -0.324 E-score |
| GCCCTAAC | -0.16 E-score |
| ACTGCTCG | -0.137 E-score |
| ACGATCCG | 0.259 E-score |
| CTCTCCGC | -0.338 E-score |
| CGAAAACA | 0.348 E-score |
| AAACGGCC | -0.269 E-score |
| GCATCGTA | -0.0338 E-score |
| CATCCACC | -0.079 E-score |
| AACTGCGG | -0.161 E-score |
| CGTAGATA | 0.21 E-score |
| CGGCGGCA | -0.23 E-score |
| AAAGTTGA | -0.0562 E-score |
| ATCGTCCC | -0.222 E-score |
| CCTGCAGA | -0.163 E-score |
| AACCGTAG | -0.0299 E-score |
| CTGCACAC | -0.044 E-score |
| AATTATCA | 0.291 E-score |
| CAATTACG | 0.131 E-score |
| TCGACACA | -0.089 E-score |
| GCCGCTGA | -0.158 E-score |
| CCATATGA | 0.0601 E-score |
| CATGATTA | -0.0351 E-score |
| GCACGTCA | -0.174 E-score |

| Sequence | binding signal |
| --- | --- |
| TCAGATAA | 0.189 E-score |
| CTTCTTAC | 0.303 E-score |
| AACACGTC | 0.0277 E-score |
| CCCCAGGG | -0.324 E-score |
| AGCTGTGG | -0.332 E-score |
| CGACAAAC | -0.146 E-score |
| AGACTGCG | -0.124 E-score |
| AGTCTAAT | 0.0221 E-score |
| CTCAGCAG | -0.206 E-score |
| GTAGATAA | 0.397 E-score |
| AGTCATTA | -0.0085 E-score |
| CAGATCAA | -0.145 E-score |
| CACAGGTC | -0.103 E-score |
| AGTGGGAA | -0.112 E-score |
| TGGGACAA | -0.0222 E-score |
| GATGGTAA | 0.222 E-score |
| CATATGGC | -0.0405 E-score |
| ATTCCGAA | 0.147 E-score |
| GATGTGGC | -0.00607 E-score |
| CGACGCCG | -0.116 E-score |
| CGAGTATA | 0.257 E-score |
| CATTCTAA | 0.12 E-score |
| GGCGGACC | -0.277 E-score |
| AAGAACGG | -0.121 E-score |
| AAGATGGC | 0.0154 E-score |

| Sequence | binding signal |
| --- | --- |
| AGAGTTAT | 0.131 E-score |
| GCCTACCA | -0.0409 E-score |
| AACCTGAA | -0.0375 E-score |
| ACCCAACA | -0.0613 E-score |
| TCGCCCGA | -0.284 E-score |
| CAAGTTAC | 0.0977 E-score |
| CGAAAGAA | -0.254 E-score |
| ACAAAAAT | 0.00529 E-score |
| TCCCCCAA | -0.237 E-score |
| AGTAGAAT | 0.422 E-score |
| ACCCAATG | 0.0422 E-score |
| AGATAGTC | 0.0233 E-score |
| GGACCGTA | -0.0209 E-score |
| GCTAAGAA | 0.0341 E-score |
| ATATGGAT | 0.23 E-score |
| AACGGCTG | -0.0851 E-score |
| CCAGGGAC | -0.189 E-score |
| CTGTGGAA | 0.041 E-score |
| CCGATAAG | -0.157 E-score |
| AACTTTGA | -0.09 E-score |
| ACTGTAAC | 0.226 E-score |
| AAGTTTAT | 0.0846 E-score |
| AAGACTCG | -0.148 E-score |
| AGGCAGCA | -0.135 E-score |
| AAGTGTCG | 0.0859 E-score |

| Sequence | binding signal |
| --- | --- |
| CGACGTAG | -0.0973 E-score |
| TACAGCTA | 0.191 E-score |
| AGCTATGG | 0.141 E-score |
| AACTGTCA | 0.000932 E-score |
| CCGTCGTC | -0.112 E-score |
| AACTTTTA | 0.194 E-score |
| ATTCTGCG | 0.0793 E-score |
| CAGAATGG | -0.212 E-score |
| CATAAGTA | 0.185 E-score |
| TCCCTGCA | -0.211 E-score |
| AATTGACG | 0.154 E-score |
| ATATGTGG | 0.033 E-score |
| CCGTTCTA | 0.108 E-score |
| GAGCAAGC | 0.0506 E-score |
| GAAGTGCC | -0.0999 E-score |
| AGGTTAAT | 0.0701 E-score |
| ACGATTGA | 0.0499 E-score |
| CCCCATCC | -0.296 E-score |
| AGAATCCG | 0.193 E-score |
| AAGCAGCA | -0.209 E-score |
| CCTAGATC | 0.0939 E-score |
| CCACGTGA | -0.129 E-score |
| GTACGACA | -0.00434 E-score |
| CGGCCAAC | -0.237 E-score |
| GGCATCCA | -0.259 E-score |

| Sequence | binding signal |
| --- | --- |
| CGTCAATC | -0.16 E-score |
| GAGTGGGA | -0.19 E-score |
| CCGACACG | -0.267 E-score |
| GTGGACAA | -0.079 E-score |
| CCCTGAAG | -0.137 E-score |
| GCGTGTAC | -0.0526 E-score |
| AAGGCGGG | -0.146 E-score |
| CAATCTTC | 0.177 E-score |
| AACCCCAT | -0.221 E-score |
| CGTGGTAA | 0.0314 E-score |
| ATATCATA | 0.207 E-score |
| GGCCAGAC | -0.163 E-score |
| ACGCGGGC | -0.223 E-score |
| CGTTGCAA | -0.0248 E-score |
| CAGGAGCA | -0.151 E-score |
| ACCCGTTC | 0.124 E-score |
| ATATATCA | 0.396 E-score |
| CTCGTTTA | -0.126 E-score |
| ACACGTGT | 0.00499 E-score |
| GGCACACC | -0.207 E-score |
| AAATGGCG | -0.123 E-score |
| CTCATACC | 0.0992 E-score |
| GATCAAAA | 0.0313 E-score |
| AGCGGGGC | -0.248 E-score |
| AACAAGAC | -0.0301 E-score |

| Sequence | binding signal |
| --- | --- |
| AGTAGCAG | 0.142 E-score |
| CAATAGAA | 0.223 E-score |
| GAGCTCTA | -0.105 E-score |
| AGCCTTAC | 0.0129 E-score |
| ACTTCTAT | 0.291 E-score |
| GCTTGTTA | -0.0434 E-score |
| CTCGAAGA | 0.0143 E-score |
| ACGCCCCG | -0.309 E-score |
| ACGCTCAT | -0.212 E-score |
| CCCTCAAA | -0.261 E-score |
| CGCCCCAG | -0.292 E-score |
| CCATTCTC | -0.103 E-score |
| GCTTCGAC | -0.0316 E-score |
| GCTGGTCA | -0.291 E-score |
| AAAATCTC | 0.242 E-score |
| CACGCCCA | -0.205 E-score |
| CGATGATC | 0.0105 E-score |
| GCCATCCA | -0.088 E-score |
| CCGAGGTC | -0.275 E-score |
| CCCGCACA | -0.273 E-score |
| CTGCCTTA | -0.0453 E-score |
| CCTGTACC | -0.068 E-score |

Reference: PMC6212790
